# Experimental data as given in article PMC10668032.
# Some of the results follow. At the low end of the ranking the order means little.
# Target: SIX1 homeodomain (reference allele) (UniProt Q15475)
# Experiment: universal protein binding microarray
# Conditions: Universal all-10-mer PBM (8x60K, AMADID 030236), 300 nM GST-tagged protein, Alexa Fluor 488 anti-GST; buffer, salt, pH and temperature not stated; high values mean tight binding; most listed sequences are background and not binding sites; double strand, one strand shown
row,Sequence,binding signal [E-score]
1,AAGTATGT,-0.148
2,TAATCGAA,-0.187
3,GCGCTGAC,-0.287
4,CCTCTATC,0.0339
5,AACTCTTA,-0.133
6,CATGCCGA,-0.0331
7,ACGTGGTC,-0.168
8,CACCTTAG,-0.0539
9,ACACAGTA,0.0199
10,GGACGCAC,-0.351
11,ATAACACC,0.301
12,AGCGCCTG,-0.178
13,GACATCTA,0.0667
14,CTTGAGTA,0.103
15,CTTGCCTA,-0.181
16,GCCCACCA,0.0599
17,CATTGATA,0.391
18,AAAGTAAA,-0.255
19,ACTGAACT,-0.167
20,ACCGATTC,0.029
21,TAACAGCA,-0.172
22,AATACACA,0.169

row,Sequence,binding signal [E-score]
1,GCAACCGC,-0.255
2,TGATCGCA,0.171
3,ACCTGGTC,-0.0391
4,ATAATCAC,0.0901
5,AGGGGCTC,0.0609
6,CATCTGAC,0.152
7,ACAAGTTG,-0.0877
8,GGTCTAAC,0.0232
9,GACCAGGC,-0.108
10,CTCATACA,0.0921
11,GCTCGAGC,0.12
12,AGCCCATG,-0.146
13,AGATTAGA,0.00566
14,ACTGCAAC,-0.116
15,ATCGCTCC,0.0652
16,AATGCAAA,-0.035
17,ACAGCGCT,0.0172
18,CGTCTAAG,0.193
19,ATCAAGAG,0.139
20,CTCATAGC,-0.136
21,AATGATCC,0.424
22,ACTCGGAT,0.38

row,Sequence,binding signal [E-score]
1,GTGGCTGA,0.0821
2,ACTTCCAA,-0.155
3,GCACTAAA,-0.139
4,GAATTGTA,-0.0626
5,GGGAGAAA,-0.173
6,GCGCTCGA,-0.192
7,CTCGGGCC,-0.0621
8,AGGTATAT,0.357
9,ATCAGAAC,0.0329
10,CACCATGC,0.113
11,AGATATCG,0.434
12,GAAGCAAC,-0.2
13,GACCAGCA,-0.244
14,TAGGGCCA,-0.229
15,ATGGAACG,-0.232
16,CATCACCC,0.115
17,AAAATCTA,-0.0612
18,AGTCAGGA,-0.026
19,AAACGCAC,-3.5e-05
20,AAAGCGGA,0.101
21,AATTTATC,0.00878
22,TAAGAATA,-0.0539

row,Sequence,binding signal [E-score]
1,CGACTAGC,-0.0674
2,GCCATCGC,0.0318
3,GACCCACA,-0.043
4,ACAACGCT,-0.246
5,AAATATAC,0.237
6,AGAGAGAA,-0.135
7,TCATTGAA,0.0929
8,ATTGCACC,0.00256
9,ATAAGCCC,-0.0855
10,CGGGGTAG,0.22
11,GCTAAACC,-0.0327
12,CCCACCCC,0.2
13,ACATAGTA,0.205
14,CCGGTCGA,-0.156
15,AAGTGACA,0.0438
16,AACTCGGA,-0.128
17,ATCCTCGC,0.279
18,ATACTGTG,0.226
19,CCTAGCCA,-0.0901
20,GATGTAGA,0.0155
21,AAATCACT,-0.171
22,GGCAACCC,-0.135

row,Sequence,binding signal [E-score]
1,CAATGTGC,-0.0955
2,CTGATACA,0.404
3,GAGAGCGA,0.113
4,AAGCGTCA,-0.185
5,ACTCGCAG,-0.134
6,GAGCCTGC,-0.00779
7,ACCAACGT,-0.0812
8,AGCGCAAA,-0.124
9,GAGGGGGC,-0.211
10,AAAGTGGC,-0.216
11,CAGATGTC,-0.13
12,CCAGTTGC,-0.0802
13,GGGAACCC,0.19
14,GAAACCTA,0.0398
15,GGTAAAGA,0.0345
16,ATAGCGTC,0.0199
17,GTGTGCCA,-0.177
18,GCTATAGC,-0.0047
19,GAGTACGA,0.049
20,GGGCTGTA,-0.0771
21,GCCTTTCC,-0.198
22,ACTATAGG,0.0552
